# Results taken from the antibiotic and cytotoxicity screens of Wong et al. (2023).
# This is one part of the list.
# Tests used:
# [1] = system: HSkMC (human skeletal muscle cells); assay: cytotoxicity call (relative viability < 0.9); conditions: 10 µM
# [2] = system: HepG2; assay: cytotoxicity call (relative viability < 0.9); conditions: 10 µM
# [3] = system: S. aureus RN4220; assay: growth inhibition call (relative growth <= 0.2); conditions: 50 µM
Structure (SMILES),cytotoxicity call [1],cytotoxicity call [2],growth inhibition call [3]
COc1ccccc1-c1ccc2c(c1)O[C@@H](CN(C)CC1CCOCC1)[C@H](C)CN([C@H](C)CO)S2(=O)=O,inactive,inactive,inactive
C[C@@H]1CN([C@@H](C)CO)C(=O)c2cc(NC(=O)NC3CCCCC3)ccc2O[C@@H](C)CCCCO[C@@H]1CN(C)Cc1ccccc1,inactive,inactive,inactive
CCCC#Cc1ccc2c(c1)O[C@@H](CN(C)C(=O)c1cnccn1)[C@@H](C)CN([C@H](C)CO)S2(=O)=O,inactive,inactive,inactive
C[C@@H]1CN([C@@H](C)CO)C(=O)c2cc(NC(=O)C3CCCCC3)ccc2O[C@@H](C)CCCCO[C@H]1CN(C)Cc1ccncc1,inactive,inactive,inactive
C=C1NC(=O)CN1c1ccc(N)cc1,inactive,inactive,inactive
CCOc1ccc(Nc2c3ccccc3nc3ccccc23)cc1,inactive,active,inactive
Cn1cc(CN2CCO[C@]3(COCCN(S(C)(=O)=O)C3)C2)cn1,inactive,inactive,inactive
C[C@@H]1CN([C@H](C)CO)C(=O)c2cc(NC(=O)CCN3CCOCC3)ccc2O[C@H]1CN(C)Cc1ccncc1,inactive,inactive,inactive
CN(Cc1ccccn1)C(=O)[C@@]12COC[C@@H]1CN(S(C)(=O)=O)C2,inactive,inactive,inactive
Cc1ccc(S(=O)(=O)Nc2ccc3c(c2)C(=O)N([C@H](C)CO)C[C@@H](C)[C@H](CN(C)C(=O)Cc2ccccc2)OCCCC[C@@H](C)O3)cc1,inactive,inactive,inactive
NC1CCN(C(=O)N2CCCC2)CC1,inactive,inactive,inactive
C[C@H]1CN([C@@H](C)CO)C(=O)c2cc(NC(=O)Cc3cn(C)c4ccccc34)ccc2O[C@@H]1CN(C)Cc1ccc(C(F)(F)F)cc1,inactive,inactive,inactive
COc1ccc2c(c(Br)c(C(=O)O)n2CCCOc2cccc3ccccc23)c1-c1ccccc1C,inactive,inactive,active
